In all, about 150,000 compounds went through this assay and about 540 (0.36%) showed an effect of 50% or more. Some of the results follow.
These molecules were tested on Plasmodium falciparum (assay: Primary screen in NF54 nanoGlo assay, in single point, at 2uM, 72h; a lower Z score goes with more inhibition). Conditions: timepoint 72 hour.
Format: functional, Erythrocyte
`Cc1cccc([C@H]2C(=O)NCCN2Cc2cnc3n2CCOC3)c1` was tested, and the “% Inhibition” value was -11% and the Z score was 2.11. In the case of `CC1(C)CC(Nc2nn3cnnc3c3ccccc23)CC(C)(C)N1`, the “% Inhibition” value is reported as -4% and the Z score is reported as 0.66. With `O=C(NCCN1CCCCC1)c1ccccc1OC1CCN(Cc2ccccn2)CC1` the “% Inhibition” value was 0% and the Z score was 0. In the case of `N#CC1(NC(=O)c2cccc(S(=O)(=O)N3CCC(c4ncc[nH]4)CC3)c2)CCCC1`, the “% Inhibition” value is reported as -2% and the Z score is reported as 0.45. In the case of `CN1CCN(c2ccc(F)cc2C(=O)NCCc2ccc3cn[nH]c3c2)CC1`, the “% Inhibition” value is reported as -12% and the Z score is reported as 2.68. In the case of `CNC(=O)NCc1cn([C@@H](C)c2cc(C)ccc2OC)nn1`, the “% Inhibition” value is reported as -2% and the Z score is reported as 0.49. With `CCOc1ccccc1[C@@H]1c2[nH]c3ccccc3c2CCN1C(=O)CN1CCOC1=O` the “% Inhibition” value was -3% and the Z score was 0.62. In the case of `Cc1cc(NCc2ccccc2F)n2nccc2n1`, the “% Inhibition” value is reported as 3% and the Z score is reported as -0.59. `Cc1cc(N2CCN(C(=O)[C@H]3CCCN(C(C)C)C3)CC2)nc(N)n1` was tested, and the “% Inhibition” value was 2% and the Z score was -0.45. `Cc1cccc(Nc2nc(N)nc(CN3CCC[C@H](c4nc(CC(C)C)no4)C3)n2)c1` was tested, and the “% Inhibition” value was -12% and the Z score was 2.11. With `COc1ccc(F)c(CNc2nc(N)nc3c2CCCC3)c1F` the “% Inhibition” value was 8% and the Z score was -1.73. For `C[C@@H](c1ccc(-c2[nH]nc3ccccc23)cc1)N1CCOCC1`, the “% Inhibition” value was -4% and the Z score was 0.59. In the case of `CN1CCN(C[C@@H](O)CN(C)CC(=O)N2CCCCCC2)CC1`, the “% Inhibition” value is reported as -6% and the Z score is reported as 1.39. For `Brc1cnccc1O[C@H]1CCN(c2ncnc3cnccc23)C1`, the “% Inhibition” value was 2% and the Z score was -0.33. With `FCC1CN(Cc2c[nH]c3ccccc23)CC1c1n[nH]c(C2CC2)n1` (stereo not given) the “% Inhibition” value was -10% and the Z score was 1.77. `CC[C@H]1C(=O)NCCCN1C(=O)CN1CCc2ccccc2C1=O` was tested, and the “% Inhibition” value was -3% and the Z score was 0.63. In the case of `O=C(Nc1ccccc1)NS(=O)(=O)c1ccc(Nc2cccc(Cl)c2)nc1`, the “% Inhibition” value is reported as -6% and the Z score is reported as 0.87. For `Cc1c(F)cc(C(N)=O)cc1NS(=O)(=O)CCc1ccc2c(c1)CCO2`, the “% Inhibition” value was -7% and the Z score was 1.24. With `CN(C1CCN(Cc2ccccn2)CC1)[C@H]1CCCN(CCCc2ccccc2)C1` the “% Inhibition” value was -7% and the Z score was 1.16. `COc1cccc(-n2cc(CN(C)Cc3nc(C(N)=O)no3)cn2)c1` was tested, and the “% Inhibition” value was 3% and the Z score was -0.58. `CCOc1cc(C(=O)NC2CCN(CC3CCCC3)CC2)cc(-c2ccccc2)c1OC` was tested, and the “% Inhibition” value was 71% and the Z score was -12.46. `COc1ccnc(N2CCN(c3nccc(-c4cnccn4)n3)CC2)c1` was tested, and the “% Inhibition” value was -16% and the Z score was 3.46. With `Cc1oc(-c2cnn(C)c2)nc1C(=O)Nc1ncc(C2CCNCC2)s1` the “% Inhibition” value was -19% and the Z score was 3.25. With `OC1COCC1N1CCCN(C2CCC3(CCNCC3)CC2)CC1` (stereo not given) the “% Inhibition” value was -9% and the Z score was 1.32. With `CCOC(=O)[C@H]1CCCN(c2ccc(-c3cnn(CCOC)c3)cn2)C1` the “% Inhibition” value was -11% and the Z score was 1.66. For `Cn1ncc2c(N)nc(NCc3csc(-c4cnccn4)n3)nc21`, the “% Inhibition” value was 6% and the Z score was -0.86. `O=C(Cc1cccc(F)c1)Nc1ccc(N2CCC(N3CCCN(c4ncccn4)CC3)CC2)cc1` was tested, and the “% Inhibition” value was -8% and the Z score was 1.38. For `c1cc(-c2nc(C3CN4CCCCC4CO3)no2)ccc1CN1CCCC1` (stereo not given), the “% Inhibition” value was 0% and the Z score was 0.07. `CCCN1CCC(N2C[C@H](NC3CCC(CC)CC3)C[C@H]2C(=O)NC)CC1` (stereo not given in full) was tested, and the “% Inhibition” value was -3% and the Z score was 0.59. `CCOC1CC(Nc2cccc(C(=O)NCC(=O)NC)c2)C12CCC2` (stereo not given) was tested, and the “% Inhibition” value was -5% and the Z score was 1.05. `O=C(Cc1ccc(N2CCC(NCCCc3ccncc3)CC2)cc1)NCCc1cccc(F)c1` was tested, and the “% Inhibition” value was -18% and the Z score was 3.49. `O[C@H]1CCCN(c2ccnc(NCC3(N4CCOCC4)CCCCC3)n2)C1` was tested, and the “% Inhibition” value was -8% and the Z score was 1.36. `CCc1c[nH]c(=O)c(C(=O)Nc2ccc3c(c2)CN(CC(N)=O)CC3)c1` was tested, and the “% Inhibition” value was -6% and the Z score was 1.32. For `CC(C)CN1CCC(N2CCN(c3cc(N)nc(N)n3)CC2)CC1`, the “% Inhibition” value was -14% and the Z score was 2.38. In the case of `Cc1cc(Nc2nccc(N3CCc4ccccc4C3)n2)no1`, the “% Inhibition” value is reported as -15% and the Z score is reported as 2.21. With `O=C(CNC(=O)c1ccc(F)cc1)Nc1cccc(Nc2nc3ccccc3s2)c1` the “% Inhibition” value was 0% and the Z score was -0.03. For `Oc1cc(NCCCN2CCC[C@H](O)C2)ncn1`, the “% Inhibition” value was -8% and the Z score was 1.25. For `Cc1noc(-c2ccnc(NCc3cnn(-c4cccc(F)c4)c3)c2)n1`, the “% Inhibition” value was -13% and the Z score was 2.72. For `O=C(c1ccc2[nH]cnc2c1)N1CCC[C@H](CN2CCCCCC2)C1`, the “% Inhibition” value was 2% and the Z score was -0.52. In the case of `CC(C)Oc1ccccc1-c1ccc(NCCN2CCOCC2)nc1`, the “% Inhibition” value is reported as -13% and the Z score is reported as 2.8. In the case of `NC(=O)CCn1cc(-c2ccc(C(=O)NCCN3CCCCCC3)cc2)cn1`, the “% Inhibition” value is reported as -7% and the Z score is reported as 1.36. `O[C@@]1(c2c[nH]nn2)CCN(c2ccnc3cc(Cl)ccc23)C1` was tested, and the “% Inhibition” value was 44% and the Z score was -6.63. With `Nc1cncc(-c2ccc(C(=O)NCCCN3CCNC(=O)C3)cc2)c1` the “% Inhibition” value was 2% and the Z score was -0.47. For `NCCCCc1c(-c2cccnc2)[nH]c2c(Cl)cc(Cl)cc12`, the “% Inhibition” value was 34% and the Z score was -5.94. With `OC1CCC(Nc2nccc3occc23)CC1` (stereo not given) the “% Inhibition” value was 4% and the Z score was -0.61. With `CCn1c(Cn2ccnc2C)nnc1C1CCN(Cc2c[nH]cn2)CC1` the “% Inhibition” value was 3% and the Z score was -0.56. `CCc1nc2cc(-c3ccc(C(=O)N4CCC[C@H](OC)C4)cc3)cnc2[nH]1` was tested, and the “% Inhibition” value was 4% and the Z score was -0.84. In the case of `OC[C@H](CNCc1cc2ccc(F)cc2[nH]1)c1ccccc1Cl`, the “% Inhibition” value is reported as 41% and the Z score is reported as -6.28. `CNc1nc(N2CCC(N(C)CCN(C)C)CC2)ncc1F` was tested, and the “% Inhibition” value was -5% and the Z score was 0.91. With `Cc1cc(NCc2c(C)ccc3ncccc23)nc(N)n1` the “% Inhibition” value was 3% and the Z score was -0.51. For `Cn1ccnc1-c1ccc(NC2COCC2N2CCCC2)nn1` (stereo not given), the “% Inhibition” value was -10% and the Z score was 1.53. `COc1cc(N2CCC(CNC(=O)CN3CCCN(C)CC3)CC2)nc(N)n1` was tested, and the “% Inhibition” value was 11% and the Z score was -1.84. In the case of `CC(C)N1CCC(Nc2ccccc2N2CCN(C)CC2)CC1`, the “% Inhibition” value is reported as 0% and the Z score is reported as -0.05. In the case of `Cc1ccncc1N(C)C(=O)Cc1ccn(CC(F)(F)F)n1`, the “% Inhibition” value is reported as -3% and the Z score is reported as 0.75. With `COc1cc(NC2COCC2N2CCCCC2)ncn1` (stereo not given) the “% Inhibition” value was -13% and the Z score was 2.66. With `Cc1ncc(S(N)(=O)=O)cc1-c1nc(C(C)(C)C)no1` the “% Inhibition” value was -11% and the Z score was 2.24. With `Cc1nsc(NCCCCN2CCOCC2)n1` the “% Inhibition” value was -14% and the Z score was 2.42. For `Cc1cc(CC(=O)N2C3CCC2CC(Cc2ccccc2)C3)n[nH]1` (stereo not given), the “% Inhibition” value was -7% and the Z score was 1.45. `CN(CC1CCN(CCc2ccc(F)cc2)CC1)C(=O)c1ccc2c(c1)OCO2` was tested, and the “% Inhibition” value was -3% and the Z score was 0.5. For `Cc1nc(C)c(C)c(N2CC(c3ccccn3)C2)n1`, the “% Inhibition” value was -2% and the Z score was 0.38. With `Cc1nc(-c2ccccn2)nc(NC2CCN(CC(F)F)CC2)c1C` the “% Inhibition” value was 43% and the Z score was -9.26. `CN(C)C1CCN(CCN[C@H]2CCc3ccc(F)cc32)CC1` was tested, and the “% Inhibition” value was 87% and the Z score was -15.32. With `CC(C)CC(=O)N1CCCN(Cc2ccc(-c3ccccn3)cc2)CCCCNC(=O)[C@@H]2C[C@H]1CN2` the “% Inhibition” value was 2% and the Z score was -0.39. With `CCC1(CC)CN(Cc2conc2Cc2ccccc2)C1` the “% Inhibition” value was 3% and the Z score was -0.44. For `O=C(NC1CCN(Cc2cc(F)cc(F)c2)CC1)[C@@H]1CC2(CCNCC2)CN1`, the “% Inhibition” value was 2% and the Z score was -0.4. For `O=C(CN1CCCCCCC1)N1CC2CCC1CNC2` (stereo not given), the “% Inhibition” value was 6% and the Z score was -1.24. In the case of `Cc1[nH]c(CN2CC(O)C(N3CCOCC3)C2)cc1C#N` (stereo not given), the “% Inhibition” value is reported as 0% and the Z score is reported as 0.08. `CC(NC(=O)OC(C)(C)C)C1COCCC1NC1CCN(c2ccccc2)C1` (stereo not given) was tested, and the “% Inhibition” value was -4% and the Z score was 0.7. In the case of `CC(C)(C)OC[C@@H](O)CN1CCN(CCNC(=O)c2ccnc3ccccc23)CC1`, the “% Inhibition” value is reported as -7% and the Z score is reported as 1.03. In the case of `OC[C@H]1CCCN(CCCNc2cnccn2)C1`, the “% Inhibition” value is reported as -11% and the Z score is reported as 1.86. In the case of `COc1ccc2nc(C)nc(NCCCc3nc4cccnc4[nH]3)c2c1`, the “% Inhibition” value is reported as 0% and the Z score is reported as 0. `C[C@@H](c1ccc(Cc2cnc3c(-c4ccccc4)cnn3c2)cc1)N1CCOCC1` was tested, and the “% Inhibition” value was -11% and the Z score was 1.65. In the case of `Cc1cc(N[C@H](c2cccnc2)c2ccc(C)c(C)c2)nc(N)n1`, the “% Inhibition” value is reported as -9% and the Z score is reported as 1.33. In the case of `COc1cc(CS(=O)(=O)N(Cc2cnn(C)c2)C2CC2)sn1`, the “% Inhibition” value is reported as 2% and the Z score is reported as -0.43. For `c1ccc(-c2ncn(C[C@@H](c3ccncc3)N3CCOCC3)c2-c2c[nH]cn2)cc1`, the “% Inhibition” value was -1% and the Z score was 0.23. For `Cc1ccc(OCCN=C(N)NC2CC2)cc1`, the “% Inhibition” value was -9% and the Z score was 1.6. In the case of `CCn1nc(C)c(-c2cccc(C(=O)N(C)Cc3cnc(N)nc3)c2)c1C`, the “% Inhibition” value is reported as -7% and the Z score is reported as 1.53. `CNc1cc(C)nc(N2CCC(N3CCC[C@H](O)C3)CC2)n1` was tested, and the “% Inhibition” value was 2% and the Z score was -0.33. For `COc1ccnc(CN2CC[C@H](Nc3ncccn3)C2)c1OC`, the “% Inhibition” value was -5% and the Z score was 0.75. With `Cc1nc(N2CCC(NC(=O)c3ccc4nc(C)[nH]c4c3)CC2)cc(C(F)(F)F)n1` the “% Inhibition” value was 4% and the Z score was -0.73. `Cc1cn2nc(N[C@H]3CCN(c4cc(-c5cccnc5)nc(C)n4)C3)ccc2n1` was tested, and the “% Inhibition” value was -7% and the Z score was 1.56. `Fc1ccccc1CN1CCC[C@H](NCc2cc(CN3CCCC3)cs2)C1` was tested, and the “% Inhibition” value was -3% and the Z score was 0.45. For `COc1cccc(CCC(=O)N[C@@H](C)c2ncc(C(=O)O)s2)c1`, the “% Inhibition” value was 7% and the Z score was -1.17. For `O=C(c1cccc(-c2cnc3ccccc3c2)c1)N1CCN(CCCO)CC1`, the “% Inhibition” value was -7% and the Z score was 1.28. For `Cc1cnc2c(C(=O)N3CCN(c4nsc5ccccc45)CC3)cnn2c1`, the “% Inhibition” value was -3% and the Z score was 0.55.
